# Source: patent US8119567B2, “Method for control of cyanobacterial algae, mosses, liverworts, hornworts and other bryophytes” (FMC Corporation, priority 2004, dated 2012)
# System: Silver Moss (Bryum argenteum)
# Test: Efficacy test on silver moss in bentgrass turf, scale 1-10 (Example 3)
# Type: in vivo
# Settings: scale of 1-10 with 1 being the untreated control, rate 1.19 lbs per 1000 ft^2, average of four trials
# Experimental: Trials were conducted by spraying 24.4-73.2 mls per 1000 ft^2 of carfentrazone formulated as a 1.9 EW (Quicksilver T&O) onto bentgrass turf that was invaded by silver moss. Carfentrazone formulated as a 1.9 EW was also combined with X-77 Spreader (liquid at 0.25 wt % v/v basis) and sprayed at 24.4-36.6 mls per 1000 ft^2. The bentgrass turf was evaluated periodically after application. Control or efficacy was determined on a scale of 1-10 with 1 being the untreated control. Four trials were conducted.
# The results, shown as an average of the four trials, are compared with results observed in the same trials with Terracyte at 8-16 lbs per 1000 ft^2 application, copper sulfate at 1.19 lbs per 1000 ft^2 and a control of no application.
smiles,measurement,setting,value
"O=S(=O)([O-])[O-].[Cu+2] [Copper Sulfate, copper sulfate]",Efficacy/Control of Silver Moss in Bentgrass Turf,2 days,1.7
same,Efficacy/Control of Silver Moss in Bentgrass Turf,14 days,2.7
same,Efficacy/Control of Silver Moss in Bentgrass Turf,28 days,3.3
same,Efficacy/Control of Silver Moss in Bentgrass Turf,50 days,6.3
